In the GPR68 mutational scans of Howard et al. (2025) one finds cAMP reporter score and surface expression score data, which are given here for 43 variants.

Scores whose standard error is large were omitted. The source holds two more conditions with little spread; they are left out. In variant names, del marks residues removed and ins residues inserted between the two positions. For some assays here: The concentration of ogerin is not given here.

Sequences and labels used below:
B1: GPR68, Q15743 (parent)
chain: MGNITADNSSMSCTIDHTIHQTLAPVVYVTVLVVGFPANCLSLYFGYLQIKARNELGVYLCNLTVADLFYICSLPFWLQYVLQHDNWSHGDLSCQVCGILLYENIYISVGFLCCISVDRYLAVAHPFRFHQFRTLKAAVGVSVVIWAKELLTSIYFLMHEEVIEDENQHRVCFEHYPIQAWQRAINYYRFLVGFLFPICLLLASYQGILRAVRRSHGTQKSRKDQIQRLVLSTVVIFLACFLPYHVLLLVRSVWEASCDFAKGVFNAYHFSLLLTSFNCVADPVLYCFVSETTHRDLARLRGACLAFLTCSRTGRAREAYPLGAPEASGKSGAQGEEPELLTKLHPAFQTPNSPGSGGFPTGRLA

Variants of B1 are the subject of data set [1]. Put plainly: cAMP reporter score (Enrich2 score, wild type = 0); higher = more signal; HEK293T, FACS bins.
Data set [2] covers variants of B1. Put plainly: surface expression score (Enrich2 score, wild type = 0); higher = more signal; HEK293T, FACS bins.

On to E149W, for which the cAMP reporter score was 0.644 in data set [1] (pH 6); -0.696 in data set [1] (pH 6, modulator: ogerin); -0.459 in data set [1] (pH 6.5, modulator: ogerin). For the same variant, in data set [2], the surface expression score is -0.446.
A267R: the cAMP reporter score in data set [1] (pH 6) was -0.506; in data set [1] (pH 6.5, modulator: ogerin) it was -1.18.
With R189_F190del, the cAMP reporter score in data set [1] (pH 6) was -0.224; in data set [1] (pH 6, modulator: ogerin), -2.21.
For the variant T233_V234del, the cAMP reporter score was -2.02 in data set [1] (pH 6) and -0.857 in data set [1] (pH 6.5, modulator: ogerin). Moreover, in data set [2], the surface expression score is -2.33.
Turning to F127D, the cAMP reporter score was -1.11 in data set [1] (pH 6); -4.65 in data set [1] (pH 6, modulator: ogerin); -1.25 in data set [1] (pH 6.5, modulator: ogerin). For the same variant, in data set [2], the surface expression score was -0.804.
On to I71E, for which the cAMP reporter score in data set [1] (pH 6) is -0.339; in data set [1] (pH 6, modulator: ogerin), -0.544; in data set [1] (pH 6.5, modulator: ogerin), -0.999. Also, the surface expression score in data set [2] is -2.19.
With I71D, the cAMP reporter score in data set [1] (pH 6) is -1.5; in data set [1] (pH 6.5, modulator: ogerin), -1.44.
Turning to I19del, the cAMP reporter score in data set [1] (pH 6) is -0.962; in data set [1] (pH 6, modulator: ogerin) it was -2.31; in data set [1] (pH 6.5, modulator: ogerin), -0.909. Also, the surface expression score in data set [2] was -1.64.
With S73N, the cAMP reporter score in data set [1] (pH 6) is 1.78; in data set [1] (pH 6.5, modulator: ogerin), -0.547.
Consider L209del, for which the cAMP reporter score was -0.546 in data set [1] (pH 6); -1.57 in data set [1] (pH 6, modulator: ogerin); -0.431 in data set [1] (pH 6.5, modulator: ogerin).
For A365del, the cAMP reporter score in data set [1] (pH 5.5) is -0.885; in data set [1] (pH 6), -1.05; in data set [1] (pH 6, modulator: ogerin), -0.756; in data set [1] (pH 6.5, modulator: ogerin), -1.23. Further, in data set [2], the surface expression score was 0.07.
As for N54_E55del, the cAMP reporter score in data set [1] (pH 6) was -1.39; in data set [1] (pH 6, modulator: ogerin) it was -2.37; in data set [1] (pH 6.5, modulator: ogerin), -1.4. For the same variant, the surface expression score in data set [2] is -2.96.
As to L121N, the cAMP reporter score in data set [1] (pH 6) is -0.178; in data set [1] (pH 6, modulator: ogerin) it was -1.43; in data set [1] (pH 6.5, modulator: ogerin), -1.32. For the same variant, the surface expression score in data set [2] is -2.05.
On to H125P, for which the cAMP reporter score was -0.632 in data set [1] (pH 6) and -0.452 in data set [1] (pH 6.5, modulator: ogerin). Besides, the surface expression score in data set [2] is -0.979.
As to H125M, the cAMP reporter score in data set [1] (pH 6) was 1.1; in data set [1] (pH 6, modulator: ogerin) it was -0.651; in data set [1] (pH 6.5, modulator: ogerin), -0.167. In data set [2], the surface expression score was -2.21.
For the variant Q179del, the cAMP reporter score in data set [1] (pH 6) was -0.317; in data set [1] (pH 6, modulator: ogerin), -0.871; in data set [1] (pH 6.5, modulator: ogerin), -0.977. Besides, the surface expression score in data set [2] is -2.17.
Regarding G90S, the cAMP reporter score in data set [1] (pH 6) amounted to 1.08; in data set [1] (pH 6, modulator: ogerin), 0.266. For the same variant, the surface expression score in data set [2] turned out to be 0.48.
Consider F173A, for which the cAMP reporter score in data set [1] (pH 6) was -1.82; in data set [1] (pH 6, modulator: ogerin) it was -1.46.
Turning to F173R, the cAMP reporter score in data set [1] (pH 6) was -1.61; in data set [1] (pH 6, modulator: ogerin), -1.22; in data set [1] (pH 6.5, modulator: ogerin), -1.48. For the same variant, the surface expression score in data set [2] was -1.52.
For the variant A137Q, the cAMP reporter score was -0.047 in data set [1] (pH 6); -1.56 in data set [1] (pH 6, modulator: ogerin); -0.332 in data set [1] (pH 6.5, modulator: ogerin).
In the case of A137L, in data set [1] (pH 6), the cAMP reporter score was -0.119.
For R222K, the cAMP reporter score in data set [1] (pH 6) amounted to 0.633; in data set [1] (pH 6, modulator: ogerin), 1.11; in data set [1] (pH 6.5, modulator: ogerin), 1.1. For the same variant, in data set [2], the surface expression score turned out to be 0.449.
For R222V, the cAMP reporter score in data set [1] (pH 6) was 3.01; in data set [1] (pH 6, modulator: ogerin), 1.56; in data set [1] (pH 6.5, modulator: ogerin), 3.21. Moreover, the surface expression score in data set [2] is 0.346.
On to R222C, for which the cAMP reporter score in data set [1] (pH 6) is 0.425; in data set [1] (pH 6, modulator: ogerin) it was -0.292; in data set [1] (pH 6.5, modulator: ogerin), 0.117. The surface expression score in data set [2] is -0.925.
The corresponding values for T218R are -0.714, -0.955, 0.274 and 0.477.
Consider T218M, for which the cAMP reporter score is -0.086 in data set [1] (pH 6) and -0.914 in data set [1] (pH 6, modulator: ogerin). Further, the surface expression score in data set [2] is -1.07.
In the case of Y47_L48insG, the cAMP reporter score in data set [1] (pH 6) is 0.21; in data set [1] (pH 6, modulator: ogerin), -2.15; in data set [1] (pH 6.5, modulator: ogerin) it was -1.33. Besides, the surface expression score in data set [2] was -2.21.
Turning to L43G, the cAMP reporter score in data set [1] (pH 6) was -0.088; in data set [1] (pH 6, modulator: ogerin) it was 0.249; in data set [1] (pH 6.5, modulator: ogerin) it was -0.058. For the same variant, in data set [2], the surface expression score is -2.24.
For the variant F237_L238insG, the cAMP reporter score in data set [1] (pH 6) is -1.19; in data set [1] (pH 6, modulator: ogerin) it was -0.657; in data set [1] (pH 6.5, modulator: ogerin), -0.337.
For the variant H175P, the cAMP reporter score in data set [1] (pH 6) was -1.48; in data set [1] (pH 6, modulator: ogerin), -3.57; in data set [1] (pH 6.5, modulator: ogerin), -1.78. Also, the surface expression score in data set [2] turned out to be 0.829.
The corresponding values for T152K are -1.41, -2.27, -1.39 and -3.18.
In the case of T152P, the cAMP reporter score in data set [1] (pH 6) was -0.117.
For the variant T233K, the cAMP reporter score is -1.64 in data set [1] (pH 6); -0.683 in data set [1] (pH 6, modulator: ogerin); -0.32 in data set [1] (pH 6.5, modulator: ogerin). Further, the surface expression score in data set [2] is -1.65.
T233E: the cAMP reporter score in data set [1] (pH 6) was -0.89; in data set [1] (pH 6, modulator: ogerin) it was -1.93; in data set [1] (pH 6.5, modulator: ogerin), 0.487.
Consider F129_H130insG, for which the cAMP reporter score in data set [1] (pH 6) was -0.432; in data set [1] (pH 6, modulator: ogerin), -0.649; in data set [1] (pH 6.5, modulator: ogerin) it was -1.03. Moreover, the surface expression score in data set [2] was -0.444.
For G110R, the cAMP reporter score is -0.112 in data set [1] (pH 6) and -0.678 in data set [1] (pH 6, modulator: ogerin).
Consider G110N, for which the cAMP reporter score was 3.93 in data set [1] (pH 6); -0.087 in data set [1] (pH 6, modulator: ogerin); 2.42 in data set [1] (pH 6.5, modulator: ogerin). In data set [2], the surface expression score was -1.14.
Take G110S: the cAMP reporter score in data set [1] (pH 6) was 3.43; in data set [1] (pH 6, modulator: ogerin) it was 0.482; in data set [1] (pH 6.5, modulator: ogerin) it was -0.348. In addition, the surface expression score in data set [2] came to 1.21.
G110V: the cAMP reporter score in data set [1] (pH 6) is -0.824. Further, in data set [2], the surface expression score was -0.409.
For the variant P283A, the cAMP reporter score was -0.034 in data set [1] (pH 6); -0.658 in data set [1] (pH 6, modulator: ogerin); -0.435 in data set [1] (pH 6.5, modulator: ogerin).
Consider N86L, for which the cAMP reporter score in data set [1] (pH 6) is -0.823; in data set [1] (pH 6, modulator: ogerin) it was -1.37. Moreover, in data set [2], the surface expression score is -0.807.
Turning to Q95_V96insGS, the cAMP reporter score in data set [1] (pH 6) was -0.475; in data set [1] (pH 6, modulator: ogerin), -0.661; in data set [1] (pH 6.5, modulator: ogerin) it was -0.833.
For N266E, in data set [1] (pH 6), the cAMP reporter score is -1.02. Besides, in data set [2], the surface expression score amounted to 0.128.
